± gives the standard deviation of the averaged measurements. The list shows a part of the results.

The experiment has as its system PfAP2-LT AP2 domain (GST-tagged). Briefly: gcPBM binding intensity (ln(normalized median fluorescence intensity)); higher = stronger DNA binding. The method, boiled down:
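Binding intensity values are the highest Masliner-normalised natural-log median intensity among replicate spots of either probe orientation. The binding step lasted 1 h in 1× PBS with 1% milk, 0.2 mg/ml BSA, 0.5% salmon testes DNA and 0.03% Triton X-100, using GST-tagged P. falciparum DNA-binding domains expressed in E. coli on an Agilent 4 × 180k array of primer-extended double-stranded 36-bp intergenic genomic probes plus negative controls. Alexa488 anti-GST antibody and a 488 nm scan detected bound protein.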
For “TAACATTATATATATTGTACATAGTAAATATTATAT [XGTACX_site5421]”, the “gcPBM binding intensity (ln)” value was 8.73 ± 0.33.

Take “ATTATTTATTATTTCTGTACGTATAAAAATAACATT [XGTACX_site1671]”: the “gcPBM binding intensity (ln)” value came to 8.65 ± 0.38.

Regarding “ATAAAACATAAAAATCGTACAAAGGAGGATATAAGG [XGTACX_site420]”, the “gcPBM binding intensity (ln)” value worked out at 9.22 ± 0.42.

Turning to “TGGAGGTCAGTTCACAGTACCCAGAAAACTCTACGA [XGTACX_site2561]”, the “gcPBM binding intensity (ln)” value was found to be 8.57 ± 0.49.

On to “AAAATGATGTTAATTACACACATCATCTCATAAACA [CACACA_site3017]”, for which the “gcPBM binding intensity (ln)” value is 8.91 ± 0.25.

Regarding “AAGGGAATATACCTTACACACAAAAATGCAGATATA [CACACA_site1451]”, the “gcPBM binding intensity (ln)” value stood at 9.26 ± 0.45.

For the sequence “AAAGTAAAAAAAAAAACATGCACATATTTACTTTAT [TGCATGCA_site849]”, the “gcPBM binding intensity (ln)” value worked out at 8.87 ± 0.47.

Regarding “TTTTTTTTGGTTTTCATGCACACAATTTATAAATCT [CACACA_site3107]”, the “gcPBM binding intensity (ln)” value worked out at 9.14 ± 0.38.

For “CTAATCAAAATAAATTAACACACAATTTTAATATTG [CACACA_site7887]”, the “gcPBM binding intensity (ln)” value came to 8.58 ± 0.47.

In the case of “ATATACTTACATATTACACACAATATTTTTAAATGT [CACACA_site3627]”, the “gcPBM binding intensity (ln)” value came out at 9.22 ± 0.37.

For “GTTAATATACTTAATACACACACGAATATATATAAA [CACACA_site1181]”, the “gcPBM binding intensity (ln)” value turned out to be 9.26 ± 0.29.

As for “ATTCTATACATATATATACACACGTAGTTTCTATTT [CACACA_site2223]”, the “gcPBM binding intensity (ln)” value was found to be 9.04 ± 0.43.

Regarding “AAAAAAAAAAAGAAGGAAACATTTGACCAAAAATAT [GTGCAC_negctrl_site404]”, the “gcPBM binding intensity (ln)” value was 8.63 ± 0.55.

As to “AATTATATATAAAGAAGTACTATTTCAAGGAGTTTT [XGTACX_site3837]”, the “gcPBM binding intensity (ln)” value is 8.54 ± 0.52.

As for “AATAAAACATCATCATGTACAAAATTCGTCTTTGTA [XGTACX_site4821]”, the “gcPBM binding intensity (ln)” value was determined as 8.81 ± 0.39.

In the case of “CAAAATATATATGACACACACAAAAAAAGTATATTA [CACACA_site1589]”, the “gcPBM binding intensity (ln)” value worked out at 9.25 ± 0.49.

As to “TCAAATTTTCAACATTGTACATAAATGTATAAATAT [XGTACX_site6042]”, the “gcPBM binding intensity (ln)” value came to 8.62 ± 0.33.

On to “ATGTCACAATTTTTCACACACAAAATTTAAATACAT [CACACA_site5168]”, for which the “gcPBM binding intensity (ln)” value came out at 9.11 ± 0.4.

With “TATTATTATATATATAGTACATAAAATATAAAAAAA [XGTACX_site2060]”, the “gcPBM binding intensity (ln)” value amounted to 8.6 ± 0.47.

Turning to “TTTTTTTTTTAAATGTGTCCTCATTATAATATATGT [XGTACX_site5331]”, the “gcPBM binding intensity (ln)” value turned out to be 8.65 ± 0.47.

For “TTTTTTAAATTATATTATAGCAAATAAATATTAAAA [CACACA_negctrl_site1655]”, the “gcPBM binding intensity (ln)” value amounted to 7.8 ± 0.49.

Regarding “GCATTATTATATATTTGTACATATTTTTTTTTAAAA [XGTACX_site5436]”, the “gcPBM binding intensity (ln)” value worked out at 8.67 ± 0.42.

Consider “TAATTATGCGGACACACACACACACCCAACTAAAAA [CACACA_site5427]”, for which the “gcPBM binding intensity (ln)” value came to 9.9 ± 0.26.

In the case of TTTTTATTTTCATATGTGCACTTATATATATATATA, the “gcPBM binding intensity (ln)” value was determined as 9.07 ± 0.36.

On to “TTTTTATATAAGAAAAAATTATAACAATTTGTTAAT [XGTACX_negctrl_site422]”, for which the “gcPBM binding intensity (ln)” value amounted to 8.03 ± 0.46.

As for “TTCGCTGTTTTAATTAGTACTTATATATAATATTAT [XGTACX_site1149]”, the “gcPBM binding intensity (ln)” value stood at 8.93 ± 0.52.

For the sequence “TATTGATATATATATATATATATATGTATATACTTA [GTGCAC_negctrl_site111]”, the “gcPBM binding intensity (ln)” value is 9.15 ± 0.31.

For the sequence “CTAAACCTTTTGAGCACACATATATATATATATATA [CACACA_site1782]”, the “gcPBM binding intensity (ln)” value amounted to 9.745 ± 0.05.

In the case of “AAATTTTAATTAGACTGTACACATTTTAGAATAATT [XGTACX_site4819]”, the “gcPBM binding intensity (ln)” value is 8.59 ± 0.34.

Turning to “TTTTATGTTTTAAAATGTACGTGTCAATGAATAAGT [XGTACX_site6239]”, the “gcPBM binding intensity (ln)” value was 8.52 ± 0.42.

Regarding “TTTTATTTTTAAAATTGTACATTATTATTGTTATTT [XGTACX_site1439]”, the “gcPBM binding intensity (ln)” value is 8.7 ± 0.54.

In the case of “TATTATAGTCCGACTTTTTAATTTCTTTATTGTTTT [CACACA_negctrl_site1381]”, the “gcPBM binding intensity (ln)” value stood at 8.78 ± 0.47.

For the sequence “TGAATATTCATATGCACACAAATTAATATACATAAT [CACACA_site442]”, the “gcPBM binding intensity (ln)” value turned out to be 9.05 ± 0.36.

With “GGCTAAAAGTTGCACACACACAAAAAAAAAAAAAAA [CACACA_site7531]”, the “gcPBM binding intensity (ln)” value was found to be 9.37 ± 0.51.

Regarding “TATTTGTTCTGATCCTTTTATTCAACTTTTTTTTTT [CACACA_negctrl_site978]”, the “gcPBM binding intensity (ln)” value worked out at 8.74 ± 0.55.

As to “ACCTTAATTATAATAACACACGAAAAGTGGACACAT [CACACA_site1750]”, the “gcPBM binding intensity (ln)” value came out at 9.12 ± 0.35.

AAAAAAAAGTTGTAAGTGCATGTATATAATAATATT: the “gcPBM binding intensity (ln)” value was found to be 8.79 ± 0.49.

“TGATCACATAATAAATGTACAAAAAAAAATTAATAA [XGTACX_site5867]”: the “gcPBM binding intensity (ln)” value was determined as 8.65 ± 0.49.

In the case of “AGAACTTAATGCTGCACACAAAAAAAAGGAAAAATA [CACACA_site1353]”, the “gcPBM binding intensity (ln)” value came to 9.12 ± 0.47.

Regarding “TTCTTTAAAATGATATACGTTATAAATATATATATA [XGTACX_negctrl_site256]”, the “gcPBM binding intensity (ln)” value is 8.42 ± 0.38.

In the case of “AACTTGTATATATACACACACACACTGTCTTTTTTT [CACACA_site1963]”, the “gcPBM binding intensity (ln)” value turned out to be 9.91 ± 0.26.

Consider “TTTAGATAATTCATTACACACATGTATATATATATA [CACACA_site3483]”, for which the “gcPBM binding intensity (ln)” value stood at 9.05 ± 0.18.

For “TAAGGAAGAAGAAAAAGTACTAAAGGTATAAATGCG [XGTACX_site2628]”, the “gcPBM binding intensity (ln)” value came out at 8.76 ± 0.62.

Take “GCAACCTTGTGCAAATGTACAAAAAAAAAAAAAAAA [XGTACX_site679]”: the “gcPBM binding intensity (ln)” value was determined as 8.49 ± 0.49.

Turning to “AAAATTTCTTATTTTGTACACACAATAAATATTCAC [CACACA_site8464]”, the “gcPBM binding intensity (ln)” value was found to be 8.98 ± 0.47.

Regarding TTTTTGTTATTTTTAGTGCAGAAGAATAAATTTTAA, the “gcPBM binding intensity (ln)” value came out at 8.11 ± 0.39.

With “TTTTTATTGTTGCTATATTTATAACAATTTATCATA [GTGCAC_negctrl_site75]”, the “gcPBM binding intensity (ln)” value amounted to 8.64 ± 0.49.

“TTCAATAGTAAGTATACACACATATAAATAAATAAA [CACACA_site7295]”: the “gcPBM binding intensity (ln)” value turned out to be 8.98 ± 0.48.

In the case of “AAAAAAAAAATATATTGTACAATATTGTAGCTATAT [XGTACX_site7180]”, the “gcPBM binding intensity (ln)” value is 8.85 ± 0.46.

Consider “TATATATATGGACACACACACATATATATATATTTT [CACACA_site5409]”, for which the “gcPBM binding intensity (ln)” value worked out at 9.67 ± 0.23.

Consider “TATATATAATATAGTGCATGTAAAAAATAAACCATG [TGCATGCA_site932]”, for which the “gcPBM binding intensity (ln)” value came out at 8.84 ± 0.43.

Consider “TATCTTACTTTTTGCACACACTAATATTATTGTTTA [CACACA_site4990]”, for which the “gcPBM binding intensity (ln)” value stood at 9.56 ± 0.31.

With “TATAAATTAAAACATTGTACATTTTTATTATTATGT [XGTACX_site579]”, the “gcPBM binding intensity (ln)” value came to 8.64 ± 0.43.

Take “AAAATTAATATCTTGGTGCATTTTTTAATATTATTA [GTGCAC_site9638]”: the “gcPBM binding intensity (ln)” value is 8.57 ± 0.47.

Consider “ACAACTATTCATCATAGTACACGCATGATATATATA [XGTACX_site1539]”, for which the “gcPBM binding intensity (ln)” value was 8.94 ± 0.4.

In the case of “CAATTTATAAAGAAAACACACATATACATAAATACA [CACACA_site4829]”, the “gcPBM binding intensity (ln)” value stood at 8.96 ± 0.4.

Consider “ACATTATAATATTATTGTACTATATATATAATATAT [XGTACX_site2291]”, for which the “gcPBM binding intensity (ln)” value amounted to 8.76 ± 0.33.

For the origin of these results see the supplement of paper PMC11417369.
